Measured values from the supplement of paper PMC8728848.
Some of the results follow.

Assays:
Assay in all cases: glycan array binding signal (z-score within array); higher = stronger binding
Conditions in all cases: glycan notation: IUPAC condensed, linker removed
Fuc(a1-2)Gal = target: Fuc(a1-2)Gal
In short: (§1)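 The binding signal is a Z-score computed within each array. Data were drawn from 3228 arrays in the Consortium for Functional Glycomics database, restricted to those with a known protein sequence. Scores were averaged over arrays of the same protein sequence at different concentrations or buffers, and over linkers, and negative values can be taken as non-binding.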

Fuc(a1-2)Gal(b1-3)GalNAc = target: Fuc(a1-2)Gal(b1-3)GalNAc
In short: as §1

[1] = target: Fuc(a1-2)Gal(b1-3)GalNAc(a1-3)[Fuc(a1-2)]Gal(b1-4)Glc
In short: as §1

[2] = target: Fuc(a1-2)Gal(b1-3)GalNAc(a1-3)[Fuc(a1-2)]Gal(b1-4)GlcNAc
In short: as §1

[3] = target: Fuc(a1-2)Gal(b1-3)GalNAc(b1-3)Gal
In short: as §1

[4] = target: Fuc(a1-2)Gal(b1-3)GalNAc(b1-3)Gal(a1-4)Gal(b1-4)Glc
In short: as §1

[5] = target: Fuc(a1-2)Gal(b1-3)GalNAc(b1-4)[Neu5Ac(a2-3)]Gal(b1-4)Glc
In short: as §1

Fuc(a1-2)Gal(b1-3)GlcNAc = target: Fuc(a1-2)Gal(b1-3)GlcNAc
In short: as §1

[6] = target: Fuc(a1-2)Gal(b1-3)GlcNAc(b1-2)Man(a1-3)[Fuc(a1-2)Gal(b1-3)GlcNAc(b1-2)Man(a1-6)]Man(b1-4)GlcNAc(b1-4)GlcNAc
In short: as §1

[7] = target: Fuc(a1-2)Gal(b1-3)GlcNAc(b1-2)Man(a1-3)[Fuc(a1-2)Gal(b1-3)GlcNAc(b1-2)Man(a1-6)]Man(b1-4)GlcNAc(b1-4)[Fuc(a1-6)]GlcNAc
In short: as §1

[8] = target: Fuc(a1-2)Gal(b1-3)GlcNAc(b1-3)Gal(b1-4)Glc
In short: as §1

[9] = target: Fuc(a1-2)Gal(b1-3)GlcNAc(b1-3)GalNAc
In short: as §1

[10] = target: Fuc(a1-2)Gal(b1-3)GlcNAc(b1-3)[Fuc(a1-2)Gal(b1-3)GlcNAc(b1-6)]GalNAc
In short: as §1

[11] = target: Fuc(a1-2)Gal(b1-3)GlcNAc(b1-3)[Gal(b1-4)GlcNAc(b1-6)]Gal(b1-4)Glc
In short: as §1

[12] = target: Fuc(a1-2)Gal(b1-3)GlcNAc(b1-3)[Neu5Ac(a2-6)Gal(b1-4)GlcNAc(b1-6)]Gal(b1-4)Glc
In short: as §1

[13] = target: Fuc(a1-2)Gal(b1-3)GlcNAc6S
In short: as §1

[14] = target: Fuc(a1-2)Gal(b1-3)[Fuc(a1-4)]GlcNAc
In short: as §1

[15] = target: Fuc(a1-2)Gal(b1-3)[Fuc(a1-4)]GlcNAc(b1-2)Man(a1-3)[Fuc(a1-2)Gal(b1-3)[Fuc(a1-4)]GlcNAc(b1-2)Man(a1-3)]Man(b1-4)GlcNAc(b1-4)GlcNAc
In short: as §1

[16] = target: Fuc(a1-2)Gal(b1-3)[Fuc(a1-4)]GlcNAc(b1-2)Man(a1-3)[Fuc(a1-2)Gal(b1-3)[Fuc(a1-4)]GlcNAc(b1-2)Man(a1-6)]Man(b1-4)GlcNAc(b1-4)[Fuc(a1-6)]GlcNAc(b1-4)[Fuc(a1-6)]GlcNAc
In short: as §1

[17] = target: Fuc(a1-2)Gal(b1-3)[Fuc(a1-4)]GlcNAc(b1-3)[Fuc(a1-3)[Gal(b1-4)]GlcNAc(b1-6)]Gal(b1-4)Glc
In short: as §1

[18] = target: Fuc(a1-2)Gal(b1-3)[Fuc(a1-4)]GlcNAc(b1-3)[Gal(b1-4)GlcNAc(b1-6)]Gal(b1-4)Glc
In short: as §1

[19] = target: Fuc(a1-2)Gal(b1-4)Fuc(a1-3)]GlcNAc(b1-2)Man(a1-3)[Fuc(a1-2)Gal(b1-4)[Fuc(a1-3)]GlcNAc(b1-2)Man(a1-6)]Man(b1-4)GlcNAc(b1-4)GlcNAc
In short: as §1

B1: CML1 (Coprinopsis cinerea) (protein)
chain: MAIFHTGSELFIITRGPGKLTLLTWGGLNNLRSVIGAIPTENTGVTKWAVSFSHNYTRFSFIWEGQGEACYQIGNGLTRSPVGRSWSSSSTIHWGSSTVITEDVTSVVPGAVNRDKVTTAYALPDNL
glycan array binding signal (z-score) (Fuc(a1-2)Gal): 0.28 | glycan array binding signal (z-score) (Fuc(a1-2)Gal(b1-3)GalNAc): 0.202 | glycan array binding signal (z-score) [1]: -0.316 | glycan array binding signal (z-score) [2]: -0.3 | glycan array binding signal (z-score) [3]: -0.354 | glycan array binding signal (z-score) [4]: 1.02 | glycan array binding signal (z-score) [5]: -0.344 | glycan array binding signal (z-score) (Fuc(a1-2)Gal(b1-3)GlcNAc): 5.31 | glycan array binding signal (z-score) [6]: 2.78 | glycan array binding signal (z-score) [7]: 1.34 | glycan array binding signal (z-score) [8]: 4.85 | glycan array binding signal (z-score) [9]: 3.31 | glycan array binding signal (z-score) [10]: 0.55 | glycan array binding signal (z-score) [11]: 1.54 | glycan array binding signal (z-score) [12]: 0.37 | glycan array binding signal (z-score) [13]: 4.12 | glycan array binding signal (z-score) [14]: 2.21 | glycan array binding signal (z-score) [15]: -0.123 | glycan array binding signal (z-score) [16]: 0.907 | glycan array binding signal (z-score) [17]: 0.572 | glycan array binding signal (z-score) [18]: 0.304 | glycan array binding signal (z-score) [19]: -0.336
